From PubChem BioAssay AID485344 (National Center for Advancing Translational Sciences (NCATS), 2010)
The campaign covered roughly 340,000 compounds. About 6,900 (2%) were called active. Cut-off read from the data, not from the text of the source: active = inhibition above about 30%; inactive = below that, where a call was filed. This is a selection; strong and weak results do not stand in their true shares. The source gives no active or inactive call for entries shown without one.

What follows are compounds tested against D(2) dopamine receptor (Homo sapiens) (UniProt P14416) (assay: HTS Assay for Allosteric Antagonists of the Human D2 Dopamine Receptor: Primary Screen for Antagonists). Conditions: HEK293 TREx D2 cells, calcium flux, dopamine EC80; at 10 µM; stronger effect = higher value.
Outline: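 Inhibition of EC80 dopamine-driven calcium flux, recorded kinetically, defines activity here; cells are a tetracycline-induced HEK293 T-REx line expressing force-coupled D2.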
Note: 0% is about no effect.

UniProt P14416, sequence (P14416 whole entry, looked up): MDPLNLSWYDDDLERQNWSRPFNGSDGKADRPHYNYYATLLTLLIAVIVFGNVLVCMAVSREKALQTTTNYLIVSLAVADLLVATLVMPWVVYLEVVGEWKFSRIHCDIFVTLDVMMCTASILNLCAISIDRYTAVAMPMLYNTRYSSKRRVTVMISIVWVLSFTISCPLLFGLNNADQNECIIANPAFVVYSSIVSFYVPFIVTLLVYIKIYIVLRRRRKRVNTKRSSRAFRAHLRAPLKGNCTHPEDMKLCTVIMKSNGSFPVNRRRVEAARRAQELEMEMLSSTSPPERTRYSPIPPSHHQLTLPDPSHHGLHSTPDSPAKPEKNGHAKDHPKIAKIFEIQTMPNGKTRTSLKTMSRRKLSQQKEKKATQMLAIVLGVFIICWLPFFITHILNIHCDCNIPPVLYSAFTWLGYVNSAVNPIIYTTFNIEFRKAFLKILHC

Row | Structure (SMILES) | inhibition
1 | CCc1ccccc1NC(=O)CN1CCCN(Cc2cc(C)ccc2C)S1(=O)=O | 12.5%
2 | Cc1cc(=O)oc2cc(OC(=O)c3cncc(Br)c3)ccc12 | active: 30.8%
3 | CCCCNC(=O)c1cc(-c2ccc(OC)cc2)nc2n[nH]c(-c3cccc([N+](=O)[O-])c3)c12 | -18.1%
4 | CCc1ccc(NC(=O)CCNS(=O)(=O)c2ccc3c(c2)oc(=O)n3C)cc1 | -5.33%
5 | Cc1ccnc2c1ccc1c(C)ccnc12 | active: 43.2%
6 | CCOC(=O)c1ccccc1NC(=O)CN1CCCN(Cc2cccc(Cl)c2)S1(=O)=O | -10.3%
7 | CCOc1ccccc1NC(=O)CCNS(=O)(=O)c1cccc2nonc12 | 11.3%
8 | CC(C)Oc1ccc(C(=O)NCC(c2ccc(N(C)C)cc2)N2CCCC2)cc1 (centres undefined) | 2.5%
9 | Cc1ccc(C)c(NC(=O)Cn2cc(C(=O)c3cccs3)c3ccccc32)c1 | 14.1%
10 | COc1cc(C(=O)Nc2ccc3c(c2)N(C2CCCC2)C(=O)c2ccccc2S3)cc(OC)c1OC | 4.5%
11 | CCOc1ccccc1NC(=O)C1CCCN1S(=O)(=O)c1ccc2c(c1)C(C)(C)C(=O)N2C (centres undefined) | -1.46%
12 | Cc1ccc(NS(=O)(=O)c2cc(-c3cnc(C4CC4)o3)ccc2C)cc1Cl | -8.85%
13 | Nc1c(C(=O)Nc2ccccc2F)sc2nc3c(cc12)CCCCCC3 | 11%
14 | COc1ccc(NC(=O)N2CCOc3ccc(Cl)cc32)cc1 | -22.3%
15 | Cc1ccc(C(=O)COC(=O)c2cccc(NC(=O)c3ccc(Cl)cc3Cl)c2)cc1 | 19.9%
16 | CCC(C(=O)NCc1ccc(OC)c(OC)c1)n1nc(C)c2c(C)n(-c3ccc(C)cc3)nc2c1=O (centres undefined) | -7.18%
17 | CCOC(=O)c1c(NC(=O)c2cc3nc(-c4ccc(Br)cc4)cc(C(F)(F)F)n3n2)sc(C(C)=O)c1C | 17.4%
18 | CCn1cc(C(=O)NCCCOC)c(=O)c2cc(S(=O)(=O)N3CCCC3)ccc21 | -13.1%
19 | Cc1cccc(C(=O)n2nc(-c3cccnc3)nc2NCc2ccccc2)c1 | -7.19%
20 | Cc1ccc(C(=O)NCCc2ccc(S(N)(=O)=O)cc2)cc1-n1cnc2cccnc21 | 6.36%
21 | O=C(CCCCn1c(=O)c2ccccc2n(CC(=O)Nc2ccc(F)cc2F)c1=O)NCCc1ccccc1 | 8.66%
22 | COC(=O)c1c(NC(=O)Cc2coc3ccc(C(C)C)cc23)sc2c1CCC2 | -10.2%
23 | O=S(=O)(NCC(c1ccco1)S(=O)(=O)c1cccs1)c1ccc(Cl)cc1 (centres undefined) | 1.82%
24 | O=c1oc2c3c(ccc2c2ccccc12)OCN(Cc1ccccc1Cl)C3 | 17.3%

Row | Structure (SMILES) | inhibition
25 | CCOc1ccc(C(=O)c2oc3ccccc3c2NC(=O)c2cc(-c3ccc(Cl)cc3)on2)cc1 | -2.03%
26 | COC(=O)c1sccc1S(=O)(=O)N(CC(=O)Nc1ccccc1F)c1ccccc1 | -2.16%
27 | CC(=O)c1cccc(NS(=O)(=O)c2cc(-c3cnc(C4CC4)o3)ccc2C)c1 | -2.02%
28 | CCc1nn(CC(=O)N(C)Cc2ccccc2)c(=O)c2cc3sccc3n12 | -19.3%
29 | CCc1nn(C(CC)C(=O)NCCCN2CC(C)CC(C)C2)c(=O)c2cc3oc(C)cc3n12 (centres undefined) | active: 63.7%
30 | COc1ccc(Cl)cc1NC(=O)NCC1CCN(Cc2cc(C)ccc2C)CC1 | active: 54.6%
31 | COc1cc(Cl)c(NS(=O)(=O)c2cc(-c3cc(C)no3)ccc2OC)c(OC)c1 | -13.3%
32 | COc1ccc(-n2c(SCC(=O)c3ccccc3)nc3c([nH]c4ccccc43)c2=O)cc1 | 6.85%
33 | CCOc1ccccc1NC(=O)C1CCN(S(=O)(=O)c2ccc3c(c2)CCCN3C(C)=O)CC1 | 14.3%
34 | COc1ccc2nc(SC)c(C#N)cc2c1 | active: 55%
35 | CCC(=O)N1c2ccccc2CC1C(=O)NCc1ccc(N(C)C)cc1 (centres undefined) | 10.5%
36 | CC(=O)c1ccc(NC(=O)c2ccc(-n3cnnc3)cc2)cc1 | -9.52%
37 | Cc1ccc(N=C2NC(=O)CC(C(=O)Nc3cc(C(F)(F)F)ccc3Cl)S2)cc1 (centres undefined) | -13.1%
38 | O=S(=O)(c1ccc(Cl)cc1)c1nnn2c1nc(NCc1ccc3c(c1)OCO3)c1sccc12 | -17.1%
39 | CCOc1ccc(S(=O)(=O)Nc2cc3c(C(=O)OC)c(COC)oc3c3ccccc23)cc1 | 12%
40 | COc1ccc(CN2CCC(CO)(Cc3ccccc3C(F)(F)F)CC2)c(F)c1 | active: 43.2%
41 | COc1ccc(S(=O)(=O)N(CC(=O)Nc2cc(Cl)ccc2C)Cc2ccccc2)cc1OC | -6.65%
42 | Cc1ccc(-n2nc(C)c3c(C)cc(=O)n(CC(=O)NC(C)c4ccccc4)c32)cc1 (centres undefined) | 9.3%
43 | CCOc1cc(-c2ccc(OC(=O)c3ccc(OC)cc3)c(OC)c2)cc(=O)c2c(C)oc(C)c12 | -10.1%
44 | CCn1nc(C)c2c(-c3ccccc3)cc(=O)n(C(C)C(=O)NCCc3ccc(OC)c(OC)c3)c21 (centres undefined) | -0.234%
45 | COc1ccc(S(=O)(=O)NCC2CCCO2)cc1NC(=O)c1ccccc1F (centres undefined) | active: 35.6%
46 | CC(=O)Nc1ccc(NC(=O)C(Cc2ccccc2)NS(=O)(=O)c2ccc3c(c2)oc(=O)n3C)cc1 (centres undefined) | -2.42%
47 | CCOC(=O)CC(NC(=O)CCc1c(C)nc2c(c1C)c(=O)n(C)c(=O)n2C)c1ccc(OCC)c(OC)c1 (centres undefined) | 10.9%
48 | CC(C)c1ccc(NS(=O)(=O)c2ccc3[nH]cc(C(=O)NCCc4ccccc4)c(=O)c3c2)cc1 | -15.5%

Row | Structure (SMILES) | inhibition
49 | CCOC(=O)c1cc(-c2ccc(F)cc2)n(CCC(=O)Nc2nc3ccc(OC)cc3s2)c1C | -22.1%
50 | Cc1ccc(Cl)cc1N1CCN(S(=O)(=O)c2cc(Br)cc3c2N(C(=O)C2CC2)CC3)CC1 | 4.59%
51 | COc1ccc(-c2nn(-c3ccccc3)cc2C2NC(=O)NC(C)=C2C(=O)OC(C)C)cc1Cl (centres undefined) | 18.3%
52 | COc1ccc(NCc2cc3cc4c(cc3n(CC(=O)Nc3ccc(C)c(C)c3)c2=O)OCO4)cc1 | 10.1%
53 | Cn1c(=O)oc2cc(S(=O)(=O)CCC(=O)NCCc3ccc(Cl)cc3)ccc21 | 11.4%
54 | CC(C)(C)OC(=O)N1CCC(c2c(C(=O)N3CCCCC3)cnn2-c2ccccc2Cl)CC1 | 9.8%
55 | COc1ccccc1OCc1nc(C#N)c(NCc2ccc(C)cc2)o1 | 7.93%
56 | Cn1c(=O)c2sccc2n2c(CCCC(=O)NC3CCCCC3)nnc12 | -5.13%
57 | Cc1cc(C)cc(NC(=O)Cn2c(=O)n(-c3ccc(C)c(C)c3)c(=O)c3oc4ccccc4c32)c1 | -3.25%
58 | COc1ccc(N2CCN(Cc3nc4c(c(=O)n(C)c(=O)n4C)n3C(C)C)CC2)cc1 | 6.12%
59 | Cc1ccc2nc(CN3CCN(S(=O)(=O)c4ccc(C(C)C)cc4)CC3)oc2c1 | 4.87%
60 | CN(C)CCCn1c(-c2ccc(Cl)cc2)csc1=Nc1ccccc1 | 12.4%
61 | COC(=O)c1ccc(NC(=O)CCn2cnnn2)c(C)c1 | 10.4%
62 | COc1ccc2cc(CNc3ccc(C)cc3)c(=O)n(CC(=O)Nc3ccc(C)cc3Cl)c2c1 | -4.98%
63 | CCCCOc1ccccc1C(=O)N(Cc1sccc1C)C1CCS(=O)(=O)C1 (centres undefined) | -8.52%
64 | CCOc1ccc(NC(=O)CSc2c3c(nc4ccccc24)CCCC3)cc1 | 7.97%
65 | CCN1CCSc2ccc(C(=O)NCc3cccc(Br)c3)cc21 | -1.67%
66 | CC(C)(C)c1ccc(C(=O)N2CCCC(c3nc4c(nnn4Cc4cccc(F)c4)c(=O)[nH]3)C2)cc1 (centres undefined) | 3.1%
67 | Cc1ccc(-c2cn3nc(N4CCCC(C(=O)NCc5ccc(F)cc5)C4)sc3n2)cc1 (centres undefined) | -7.07%
68 | CCc1ccc(C(=O)CC2(O)C(=O)N(Cc3ccc(C)cc3)c3ccccc32)cc1 (centres undefined) | 0.239%
69 | Cc1cccc(OCc2cc(=O)n3c4c(sc3n2)CCCC4)c1C | 23.5%
70 | CCc1ccccc1NC(=O)c1cc2nc(-c3ccc(Br)cc3)cc(C(F)(F)F)n2n1 | -7.49%
71 | CC(C)c1nc2ccc(C(=O)NCc3ccccc3Br)cc2o1 | 9.35%
72 | CC(C)OCCCN1C(=O)c2[nH]nc(-c3ccccc3O)c2C1c1ccccc1F (centres undefined) | -1.82%

Row | Structure (SMILES) | inhibition
73 | COc1ccc(CNC(=O)c2sc3nc[nH]c(=O)c3c2C)cc1 | 8.92%
74 | CCOc1ccccc1N1CC(c2nc3ccccc3n2CCCOc2ccc(OC)cc2)CC1=O (centres undefined) | 10.8%
75 | Cc1noc(-c2ccccc2OCC(=O)Nc2ccccc2[N+](=O)[O-])n1 | 1.6%
76 | COc1cccc(CNC(=O)c2ccc(-n3c(C)cc4c3CCCC4)cc2)c1 | 0.608%
77 | O=C(NCC1CCN(Cc2cccc(Cl)c2)CC1)Nc1ccc(F)c(Cl)c1 | 20.6%
78 | O=C(c1ccco1)N(Cc1cccs1)c1ccc(F)cc1 | -0.254%
79 | Cc1cc(O)c(C(c2ccccc2)N2CCN(c3ccc(F)cc3)CC2)c(=O)n1Cc1ccco1 (centres undefined) | 11.4%
80 | Cc1ccc(-n2c(CCC(=O)O)ccc2-c2cccs2)cc1Cl | -6.41%
81 | CCOc1ccc2c(c1)c(=O)c(C(=O)c1ccc(CC)cc1)cn2CC(=O)Nc1cccc(Cl)c1 | 3.24%
82 | Cc1cc(C)c(Cn2c(=O)n(CCC(=O)NCc3ccc4c(c3)OCO4)c(=O)c3ccccc32)c(C)c1 | 12%
83 | CCOc1ccc(OCC)c(NC(=O)C2CCN(S(=O)(=O)c3ccc4c(c3)CC(C)N4C(C)=O)CC2)c1 (centres undefined) | 3.27%
84 | Cc1ccc(N2C(=O)[C@@H]3CSC(c4ccc(Cl)cc4)N3C2=O)cc1 (some centres undefined) | -13.9%
85 | Cc1ccc2occ(CC(=O)N(Cc3ccc(Cl)cc3)Cc3ccco3)c2c1 | -1.11%
86 | CCc1ccccc1NC(=O)COCc1cc(-c2ccco2)on1 | 7.54%
87 | CCCn1c(Nc2ccccc2C)nc2ccccc21 | active: 42.5%
88 | COc1ccccc1S(=O)(=O)Cc1ccc(C(=O)N2CCN(c3cc(Cl)ccc3C)CC2)o1 | 4.33%
89 | COC(=O)c1c(-c2ccc(Cl)cc2)noc1N1CCN(c2ccccc2OC)CC1 | 14.5%
90 | COc1ccc(CNc2nc(-c3ccc(Cl)cc3)cc(C(F)(F)F)n2)cc1 | -22.3%
91 | O=C(CCCCCN1C(=O)CCC1=O)Nc1ncn[nH]1 | active: 45.4%
92 | CCCCn1c(CCCNC(=O)c2cccc(C)c2)nc2ccccc21 | -6.84%
93 | Cc1ccc2oc(-c3cccc(NC(=O)c4cccc5c(Cl)cccc45)c3)nc2c1 | -15.9%
94 | Cc1cccc(NC(=O)c2ccc(CN3CC(=O)N4CCCCC4C3=O)cc2)c1C (centres undefined) | 6.69%
